Holding throughout (experiment): Viability of human cancer cell lines after 72 h of drug (GDSC screen)
Compound in one test: C=CC(=O)Nc1cc(-n2c(=O)ccc3cnc4ccc(-c5ccc(NS(C)(=O)=O)cc5)cc4c32)ccc1C [BMX-IN-1 (QL-XII-61)]
The settings on record: top dose 10 µM; top dose inferred. As to the method: (§1)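 Human cancer cell lines in 384-well plates, medium with 10% serum, drug for 72 h over a 256-fold dose range (nine 2-fold or five 4-fold steps up to the top dose). Adherent lines were fixed and stained with the nucleic acid dye Syto60, suspension lines read with resazurin; signal relative to control wells, capped at 0 and 100%. One two-parameter sigmoid per drug and line, fitted in a mixed model over all curves with the slope shared within a line.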

Compound in another test: C=CCNC1=C2C[C@@H](C)C[C@H](OC)[C@H](O)[C@@H](C)/C=C(\C)[C@H](OC(N)=O)[C@@H](OC)/C=C\C=C(/C)C(=O)NC(=CC1=O)C2=O [17-AAG]
Conditions: top dose 1 µM. Here is the method:
as §1

Compound in another test: CCc1cc(-c2n[nH]c(C)c2-c2ccc3c(c2)OCCO3)c(O)cc1O [CCT018159]
Conditions: top dose 10 µM; top dose inferred. As to the method:
as §1

Compound in a further test: CN(C)Cc1cccc(N=C(c2ccccc2)c2c(O)[nH]c3cc(C(=O)N(C)C)ccc23)c1 [BIX02189]
Conditions: top dose 20 µM; top dose inferred. Here is the method: as §1

Compound in the next test: COC(=O)CNC(=O)C(=O)OC [Dimethyloxalylglycine]
The settings on record: top dose 4000 µM; top dose inferred. Here is the method: as §1

Compound in a further test: COc1cccc2c1C(=O)c1c(O)c3c(c(O)c1C2=O)C[C@@](O)(C(=O)CO)C[C@@H]3O[C@H]1C[C@H](N)[C@H](O)[C@H](C)O1 [Doxorubicin]
The settings on record: top dose 1.024 µM. Here is the method: as §1

Compound in a further test: COc1cccc2cc(-c3nc([C@H]4CC[C@H](C(=O)O)CC4)n4ncnc(N)c34)[nH]c12 [OSI-027]
Conditions: top dose 20 µM. Here is the method: as §1

Compound in the next test: CS(=O)(=O)c1ccc(C(=O)Nc2ccc(Cl)c(-c3ccccn3)c2)c(Cl)c1 [Vismodegib]
Conditions: top dose 10 µM; top dose inferred. Here is the method: as §1

Compound in the next test: Cc1cnc(Nc2ccc(F)cc2Cl)nc1-c1c[nH]c(C(=O)N[C@H](CO)c2cccc(Cl)c2)c1 [VX-11e]
Conditions: top dose 5.12 µM; top dose inferred. Here is the method:
as §1

Compound in the next test: Cc1cnc(Nc2ccc(OCCN3CCCC3)cc2)nc1Nc1cccc(S(=O)(=O)NC(C)(C)C)c1 [TG101348]
The settings on record: top dose 10.24 µM. Here is the method: as §1

Compound in the next test: O=C(c1ccc(C(=O)N2CCC(N3CCCC3)CC2)c(Nc2ccccc2)c1)N1CCC(N2CCCC2)CC1 [UNC1215]
Conditions: top dose 1 µM; top dose inferred. As to the method: as §1

By IC50 is meant the dose at which the fit gives 50% viability; fits outside the tested doses are given as limits. For AUC the same curve is integrated over the 256-fold range of doses and scaled to a fraction; values near 1 show little effect. For some assays here: The top dose, if marked as inferred, was derived from the fitted curves, not read from the paper. Where only a bound is given, the exact number is not on record here.

What is called IC50 is the concentration that gives 50% inhibition. Take “NCI-H1651 (lung adenocarcinoma, adherent)”: the AUC in the test with BMX-IN-1 (QL-XII-61) was 0.984; in the test with 17-AAG it was 0.827; with CCT018159, 0.864; in the test with BIX02189, 0.983; in the test with Dimethyloxalylglycine, 0.697; with Doxorubicin, 0.332. In addition, the AUC in the test with OSI-027 is 0.948; in the test with Vismodegib, 0.984; with VX-11e, 0.987; with TG101348, 0.984; in the test with UNC1215 it was 0.969. In addition, the IC50 was above 10 µM with BMX-IN-1 (QL-XII-61); 0.676 µM with 17-AAG; 9.86 µM in the test with CCT018159; above 20 µM in the test with BIX02189; 937 µM with Dimethyloxalylglycine; 0.0209 µM with Doxorubicin. The IC50 is above 20 µM in the test with OSI-027; above 10 µM with Vismodegib; above 5.12 µM in the test with VX-11e; above 10.2 µM in the test with TG101348; above 1 µM with UNC1215.
Consider HCC1428 (breast, adherent), for which the AUC was 0.978 in the test with BMX-IN-1 (QL-XII-61); 0.85 in the test with 17-AAG; 0.932 with CCT018159; 0.977 in the test with BIX02189; 0.958 in the test with Dimethyloxalylglycine; 0.859 with Doxorubicin. In addition, the AUC was 0.757 with OSI-027; 0.988 with Vismodegib; 0.987 in the test with VX-11e; 0.924 in the test with TG101348; 0.985 with UNC1215. Moreover, the IC50 with BMX-IN-1 (QL-XII-61) was above 10 µM; in the test with 17-AAG, 0.869 µM; in the test with CCT018159 it was above 10 µM; with BIX02189 it was above 20 µM; with Dimethyloxalylglycine, above 4000 µM; with Doxorubicin it was 0.982 µM. Further, the IC50 was 7.5 µM with OSI-027; above 10 µM in the test with Vismodegib; above 5.12 µM in the test with VX-11e; above 10.2 µM in the test with TG101348; above 1 µM with UNC1215.
Take Calu-3 (lung adenocarcinoma, adherent): the AUC with BMX-IN-1 (QL-XII-61) was 0.98; in the test with 17-AAG it was 0.933; with CCT018159 it was 0.927; in the test with BIX02189, 0.983; with Dimethyloxalylglycine, 0.353; with Doxorubicin, 0.457. The AUC with OSI-027 was found to be 0.357; in the test with Vismodegib, 0.973; in the test with VX-11e it was 0.983; in the test with TG101348 it was 0.982; with UNC1215 it was 0.981. Further, the IC50 with BMX-IN-1 (QL-XII-61) is above 10 µM; with 17-AAG, above 1 µM; in the test with CCT018159, above 10 µM; in the test with BIX02189, above 20 µM; with Dimethyloxalylglycine it was 87.5 µM; with Doxorubicin, 0.0474 µM. The IC50 with OSI-027 is 0.452 µM; with Vismodegib, above 10 µM; with VX-11e, above 5.12 µM; with TG101348, above 10.2 µM; with UNC1215, above 1 µM.
Turning to “NCI-H345 (small cell lung carcinoma, suspension)”, the AUC in the test with BMX-IN-1 (QL-XII-61) is 0.988; with 17-AAG, 0.977; with CCT018159 it was 0.984; with BIX02189, 0.99; with Dimethyloxalylglycine, 0.652; with Doxorubicin it was 0.914. Also, the AUC came out at 0.676 with OSI-027; 0.99 with Vismodegib; 0.99 with VX-11e; 0.99 in the test with TG101348; 0.988 with UNC1215. In addition, the 50% inhibitory concentration (IC50) is above 10 µM with BMX-IN-1 (QL-XII-61); above 1 µM with 17-AAG; above 10 µM with CCT018159; above 20 µM with BIX02189; 677 µM with Dimethyloxalylglycine; above 1.02 µM in the test with Doxorubicin. Further, the IC50 was 3.97 µM in the test with OSI-027; above 10 µM with Vismodegib; above 5.12 µM in the test with VX-11e; above 10.2 µM in the test with TG101348; above 1 µM in the test with UNC1215.
In the case of KU-19-19 (bladder, adherent), the AUC with BMX-IN-1 (QL-XII-61) stood at 0.98; with 17-AAG, 0.961; with CCT018159, 0.803; in the test with BIX02189, 0.987; in the test with Dimethyloxalylglycine, 0.716; in the test with Doxorubicin it was 0.911. Also, the AUC with OSI-027 worked out at 0.898; with Vismodegib, 0.967; in the test with VX-11e, 0.609; in the test with TG101348 it was 0.964; with UNC1215, 0.986. Moreover, the IC50 in the test with BMX-IN-1 (QL-XII-61) is above 10 µM; with 17-AAG it was above 1 µM; in the test with CCT018159, 4.96 µM; with BIX02189 it was above 20 µM; in the test with Doxorubicin, above 1.02 µM; in the test with OSI-027, above 20 µM. Further, the IC50 in the test with Vismodegib was above 10 µM; in the test with VX-11e, 0.638 µM; with TG101348, above 10.2 µM; in the test with UNC1215, above 1 µM.
As for Hs939-T (melanoma, adherent), the AUC was 0.952 in the test with BMX-IN-1 (QL-XII-61); 0.52 with 17-AAG; 0.923 in the test with CCT018159; 0.985 with BIX02189; 0.714 with Dimethyloxalylglycine; 0.671 with Doxorubicin. The AUC in the test with OSI-027 worked out at 0.974; in the test with Vismodegib, 0.979; with VX-11e, 0.935; with TG101348 it was 0.986; with UNC1215, 0.98. Further, the 50% inhibitory concentration (IC50) with BMX-IN-1 (QL-XII-61) is above 10 µM; with 17-AAG it was 0.0713 µM; with CCT018159, above 10 µM; with BIX02189, above 20 µM; in the test with Dimethyloxalylglycine it was 1070 µM; in the test with Doxorubicin, 0.201 µM. For the same cell line, the IC50 with OSI-027 was above 20 µM; with Vismodegib, above 10 µM; with VX-11e, above 5.12 µM; in the test with TG101348 it was above 10.2 µM; with UNC1215, above 1 µM.

The record behind these values is the supplement of paper PMC4967469.
